B1: LINE1-mini (parent)
chain: GGCAGAGCUCAACACAGCGUGGCAAAGUGGCUGUGGCUAGACUGCC

Read counts are not given, so values of variants with three or more changes are uncertain.

The variants in this data set derive from B1. Kind of data set: self-cleavage, relative activity (ratio to wild type); higher = more cleavage; in vitro, sequencing; the parent is a self-cleaving ribozyme.
For the variant GGCAGGGCUCACCACAGCGUGGCAAAGUGACUGUGGCUAGACUACC [A6G A12C G30A G44A], the self-cleavage is 0.16. In the case of GGCAGGGCUCCACACAGCGUGGCAAAGUGGCUGGGGCUAGACUGCC [A6G A11C U34G] it was 0.03. Under GGCAGGGCUCGACACAGCGUGGCAGAGUGGCUGUGACUAGACUGCC [A6G A11G A25G G36A] stands 0.03; under GGCAGGGCUCUACACAGCGUGGCAAAGUGGCUGUGGCUAGACUGCA [A6G A11U C46A], 0.06.

Consider GGCAGGGCUCUACACAGCUUGGCAAAGUGGCUGUGGGUAGACUGCC [A6G A11U G19U C37G], for which the self-cleavage came out at 0.

Take GGCAGGGCUCAACACGGCGUGGCAUAGUGGCUGUGGCUAGACUGCC [A6G A16G A25U]: the self-cleavage turned out to be 0.07. Under GGCAGGGCUCAUCUCGGCGUGGCAAAGUGGCUGUGGCUAGACUGAC [A6G A12U A14U A16G C45A] stands 0; under GGCAGGGCUCAGAACAUAGUGGCAAAGUGGCUGUGGCUAGACUGCC [A6G A12G C13A G17U C18A], 0.03; under GGCAGGGCUCAACACGGCGUGGCAAAGUGGCUGUGCCUAGACUGCG [A6G A16G G36C C46G], 0.03.

On to GGCAGGGCUCAACUCAGCGUGGCAAAGUGGCUGUGGCUAGACUGUC [A6G A14U C45U], for which the self-cleavage is 0.05. Consider GGCAGGGCUCCAGACAGCGUGGCAAAGUGGCUGUGGCUAGACUGCC [A6G A11C C13G], for which the self-cleavage amounted to 0.02.

GGCAGGGCUCAACACCGCGUGGCAAAGUGCCUGUGGCGAGACUGCC [A6G A16C G30C U38G]: the self-cleavage stood at 0. In the case of GGCAGGGCUCGACACAGCGUGGCGAAGUGGCUGUGGCCAGACUGCC [A6G A11G A24G U38C] it was 0.01. Under GGCAGCGCUCAACACAGCGUGGCAAAGUGGCUGUGGCUAGACCGAC [A6C U43C C45A] stands 0.04.

Take GGCAGGGCUCUACACAGCGUGGGAAAGUGGCUGUGGCUAGACUGCC [A6G A11U C23G]: the self-cleavage is 0.03. In the case of GGCAGGGCUCAACUCAGCGUGGCAAAGUGGUUGUGGCUAGCCUGAC [A6G A14U C31U A41C C45A] it was 0.01.

As for GGCAGGGCUCCAAACAGCGUGGCAAAGUGGCUGAGGCUAGACUGCC [A6G A11C C13A U34A], the self-cleavage was determined as 0.01. In the case of GGCAGCGCUCAACACAGCGUGGCAAAGUGGCUGUGGCAAGACUACC [A6C U38A G44A] it was 0.08; in that of GGCAGGGCUCACCACAACGUGGCAAAGUGGCGGUGGCUAGCCUGCC [A6G A12C G17A U32G A41C], 0; in that of GGCAGGGCUCAGCACAGCGUGGCAAAGUGGCUGUGGCUAGUCUGCU [A6G A12G A41U C46U], 0.

As for GGCAGGGCUCAUCACAGCGUGGCAAAGUGGCUGUCGCUAGACUGCC [A6G A12U G35C], the self-cleavage is 0. Under GGCAGGGCUCAUCACAGCGUGGCAAAGGGGCUGUGGUUCGACUGCC [A6G A12U U28G C37U A39C] stands 0.02; under GGCAGGGCUCCAAACAGCGUGGCAAAGUGGCUGUGGCUAUACCGCC [A6G A11C C13A G40U U43C], 0.01. Turning to GGCAGGGCUCUACACAGCGUGGCAAAGUUGCUGUGGCUCGACUGCC [A6G A11U G29U A39C], the self-cleavage worked out at 0.01. Under GGCAGGGCUCCACACAGCGUGGCAAAGUGUCUGUGGCUAAACUGUC [A6G A11C G30U G40A C45U] stands 0.01. Under GGCAGGGCUCUACACAGCGUGGUAAAGUGGGUGUGGCUAGACUACC [A6G A11U C23U C31G G44A] stands 0. In the case of GGCAGGGCUCUACACAGCGUGGCAAAGUGUUUGUGGCUAGACUGCC [A6G A11U G30U C31U] it was 0.04. For GGCAGGGCUCAACGCGGCGUGGCAAAGUGGCUGUGGCUAGACUGCC [A6G A14G A16G], the self-cleavage came to 0.

With GGCAGGGCUCUACACAGCGUGGCUAAGUGGCUGUGGCUAGACUGCC [A6G A11U A24U], the self-cleavage is 0. In the case of GGCAGGGCUCAACGCAGCGUGGCAAAGUUGCUGUGGCUAGACUGCC [A6G A14G G29U] it was 0.03. In the case of GGCAGGGCUCAACCCAGCGUGGCAAAGUGGCUGUGGGUAGACUGCU [A6G A14C C37G C46U] it was 0.02. As for GGCAGGGCUCUACACAUGGAGGCAACGUGGCUCGGGCUAGACUGCC [A6G A11U G17U C18G U20A A26C G33C U34G], the self-cleavage was determined as 0.01. Under GGCAGGGCUCAACGCAGCGUGGAAAAGUGGCUGUGGCUAGACUGCC [A6G A14G C23A] stands 0.01; under GGCAGGGCUCAGCACAGCGUGGCAAAGUGGCUGUGGCUAGACUACC [A6G A12G G44A], 0.04. Under GGCAGGGCUCAACCCAGCGUGGCAAAGUAGCUGUGGAUCGACUGCC [A6G A14C G29A C37A A39C] stands 0.2. Under GGCAGGGCUCAACACCGCGUGGCAAAGUGGCUGUCGCUAGACUGCC [A6G A16C G35C] stands 0.1; under GGCAGGGCUCAACGCAGCGUGCCAAAGUGGCUGUGGCUAGACUGCC [A6G A14G G22C], 0.08.

For GGCAGGGCUCGACACAGCGUGGCAAAGUGCCUGUAGCUAGACUGCC [A6G A11G G30C G35A], the self-cleavage came to 0.01. In the case of GGCAGGGCUCAACACCGCGUGGCAAAUUGGCUGUGGCUAGACUGCC [A6G A16C G27U] it was 0.12; in that of GGCAGGGCUCAUCACAGCGUUGCAAAGUGGCUGUGGCUAGACUGCC [A6G A12U G21U], 0.05. Under GGCAGGGCUCAACUCAGCGUGGCAAAGUGGCUGUGGCUAGACUGCG [A6G A14U C46G] stands 0.1; under GGCAGCGCUCAACACAGCGUGGCAAAGUGGCUGUGGCGAGUCUGCC [A6C U38G A41U], 0.03; under GGCAGGGCUCAACACCGCGUGGCAAAUUGGCUGUGGCUAGAAUGCC [A6G A16C G27U C42A], 0.06. Under GGCAGGGCUCGACACAGCGUGGCAAAGUGCCUGUGGCUAGAGUGCC [A6G A11G G30C C42G] stands 0.02. On to GGCAGGGCUCACCACAGCGUUGCAAAGUGGCUGUGGCUAGACUGCC [A6G A12C G21U], for which the self-cleavage turned out to be 0.03.

For GGCAGGGCUCGACACAGCGGGGCAAAGUGGCUGUGGCUAGAGUGCC [A6G A11G U20G C42G], the self-cleavage came out at 0.01.

Consider GGCAGGGCUCACCACAGCGUAGCCAAGUGGCUGUGGCUAGAGUGCC [A6G A12C G21A A24C C42G], for which the self-cleavage was found to be 0.01.

With GGCAGGGCUCAACACCGGGUGGCAAAGUGGCUGUGGCUAGUCUGCC [A6G A16C C18G A41U], the self-cleavage was 0.02. In the case of GGCAGGGCUCAUCACAGCGUGGCAAAGUGGCUGUGGCUAAACUGCC [A6G A12U G40A] it was 0.07. GGCAGGGCUCAACUCAGCGUGGCAAAGUGGCUGUGGCUAGGCUGCA [A6G A14U A41G C46A]: the self-cleavage was found to be 0.06. In the case of GGCAGGGCUCAGCUCAGCGUGGCAAAGUGGCUGUGGCUAGACUGCC [A6G A12G A14U] it was 0.02; in that of GGCAGGGCUCAGCACAGCGUGCCAAAGUGGCUGUGGCUAGACUGCC [A6G A12G G22C], 0.02. Under GGCAGGGCUCAGCACAGCGUGUCAAAGUGGCUGUGGCUAGACUGCC [A6G A12G G22U] stands 0.01; under GGCAGGGCUCGACACAGCAUGGCAAAGUGGCUGUGGCUAGACUGCA [A6G A11G G19A C46A], 0.01. In the case of GGCAGGGCUCAACACCGCGUGACAAAGUGGCUGUGGCUAGACUGCC [A6G A16C G22A] it was 0.04; in that of GGCAGGGCUCAACACCGCGGGGCAAAGUGGAUGUGGCUAGAAUGCC [A6G A16C U20G C31A C42A], 0.

Source of the values: the RNAGym collection of RNA variant scans (doi:10.7554/elife.90254).
